Test results published in PubChem BioAssay AID504832 (National Center for Advancing Translational Sciences (NCATS), 2011).
Screen size: about 310,000 compounds; about 18,000 (5.8%) were called active. This list was built around the results that the source calls inconclusive (neither active nor inactive); the mix of calls is not that of the screen. Calls follow the shape of the dose curve; as a rule, active = well fitted inhibition curve with a large enough effect; inconclusive = small, poorly fitted or top-dose-only effect, or another doubt; inactive = no such curve, though single readings can be large or run the other way. Potencies of inconclusive entries are left out as doubtful fits.

Assay: Primary qHTS for delayed death inhibitors of the malarial parasite plastid, 48 hour incubation
Details: P. falciparum luciferase growth in erythrocytes; series mostly up to 28.7 µM; activity change, negative = inhibition: at the top concentration
Method in brief: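 Erythrocytes infected with P. falciparum carrying an integrated firefly luciferase reporter (2% hematocrit, 0.1% parasitemia final) were exposed to compounds in RPMI 1640 with 0.5% Albumax at 37 C, 5% CO2. Growth inhibition was scored as reduced luminescence.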
% is scaled to controls: 0 for no effect and ±100 for the full control effect; potency is read from the fitted curve at half-maximal effect; tags tell the direction and shape of the fitted curve.

Compound | Potency | activity change, negative = inhibition
CCC(C)c1ccccc1OCCCNC1CCCC1 (configuration not stated) | inconclusive [inhibitor, partial curve, poor fit] | –
CCn1c(=O)c2cc(C(=O)NCCCOC)sc2c2ccccc21 | inconclusive [inhibitor, single point] | –
COC(=O)c1ccccc1NC(=O)C(C)Oc1ccccc1 (configuration not stated) | active: 7.38 µM | –
CC1CCN(c2ccc(NC(=S)NC(=O)c3ccc(-c4cccc([N+](=O)[O-])c4)o3)cc2)CC1 | active: 4.65 µM | –
CC(=O)c1cccc(N(C(=O)c2ccccn2)C(C(=O)NC2CCCCC2)c2cccs2)c1 (configuration not stated) | active: 2.62 µM | –
CC(=O)c1ccccc1OCC(O)CN1CCN(c2ccccn2)CC1 (configuration not stated) | – | inactive: -24.1%
COc1ccc(N2C(=O)c3ccccc3NC2c2ccc(OC)c(COc3ccccn3)c2)cc1 (configuration not stated) | – | inactive: -11.3%
COC(=O)c1cc(C(=O)NNC(=O)c2ccc3c(c2)OCO3)cc([N+](=O)[O-])c1 | – | inactive: 5.44%
CCCCN(CCCC)CC(O)Cn1c2ccccc2c(=O)c2ccccc21 (configuration not stated) | inconclusive [inhibitor, partial curve] | –
CCCCSC1=C(C#N)C(c2ccccc2C)C(C(=O)OCC)C(=O)N1 (configuration not stated) | inconclusive [inhibitor, single point] | –
Nc1ncnc(Sc2ncccn2)c1[N+](=O)[O-] | inconclusive [inhibitor, partial curve, poor fit] | –
COc1ccc(CCC(=O)Nc2cc(Cl)ccc2N2CCN(C)CC2)cc1 | active: 7.38 µM | –
Cc1ccc(-n2c(C)cc(C(=O)CSc3nncs3)c2C)cc1 | – | inactive: 140%
N/C(=N\OC(=O)CCC1CCCCC1)c1cccc([N+](=O)[O-])c1 | – | inactive: 36.3%
C=CCc1cccc(CNc2nc3ccccc3n2CCC)c1O | active: 11.7 µM | –
Cc1c(Cl)c([N+](=O)[O-])nn1CCCC(=O)N1CCN(c2ccccc2)CC1 | inconclusive [inhibitor, single point] | –
Cc1ccccc1C1=NCC(=S)Nc2ccc(Cl)cc21 | inconclusive [inhibitor, single point] | –
CN(C)c1ccc(/C=N/NC(=O)c2cccc(C(=O)N/N=C/c3ccc(N(C)C)cc3)n2)cc1 | – | inactive: 11.1%
O=C(Cn1cnc(Cl)c1Cl)c1ccccc1 | inconclusive [inhibitor, full curve, poor fit] | –
CN(C)c1ccc(C(CNC(=O)c2ccc(-c3ccccc3)cc2)N2CCOCC2)cc1 (configuration not stated) | active: 13.1 µM | –
O=C(CCSc1ccccc1)Nc1ccccc1C(=O)N1CCCC1 | – | inactive: 5.79%
CC1(c2ccc3c(c2)OCCO3)NC(=O)N(CC(=O)Nc2ccccc2SCC#N)C1=O (configuration not stated) | inconclusive [inhibitor, full curve, poor fit] | –
CCOC(=O)C(C)NC(=O)Cn1ncc2c(=O)oc3ccc(C)cc3c21 (configuration not stated) | inconclusive [inhibitor, single point] | –
CCC(c1nnnn1CCOC)N1CCN(c2cccc(C(F)(F)F)c2)CC1 (configuration not stated) | inconclusive [inhibitor, single point] | –

Compound | Potency | activity change, negative = inhibition
Cc1cc(Br)ccc1OCCCCN1CCC(C)CC1 | active: 14.7 µM | –
O=C(Cc1ccc(S(=O)(=O)N2CCCCC2)cc1)NCc1ccc(Cl)cc1 | inconclusive [inhibitor, single point] | –
Cc1cc(Nc2cccc(Cl)c2)c2ccccc2n1 | inconclusive [inhibitor, single point] | –
Cc1cc(C(=O)OCC(=O)NCc2ccco2)c(C)n1-c1ccccc1 | inconclusive [inhibitor, partial curve, poor fit] | –
Cc1ccc(NC(=O)COC(=O)COc2cccc3c2OC(C)(C)C3)c(C)c1 | – | inactive: 11.9%
Cc1ccc(CSc2nnc(-c3cccc(S(=O)(=O)N4CCOCC4)c3)n2CC(C)C)cc1 | inconclusive [inhibitor, single point] | –
CC(NC(=O)COC(=O)c1ccc(CO)cc1)C1CC2CCC1C2 (configuration not stated) | inconclusive [inhibitor, single point] | –
Cc1ccc(C)c(N2CCN(C(=O)CCCN3C(=S)NC(C)(C)CC3C)CC2)c1 (configuration not stated) | inconclusive [inhibitor, single point] | –
Cc1ccc2nc(-c3ccncc3)cc(C(=O)Nc3ccc(OC(F)F)cc3)c2c1 | inconclusive [inhibitor, partial curve] | –
CC1CCc2nc3ccccc3c(C(=O)OCC(=O)N(C)C3CCS(=O)(=O)C3)c2C1 (configuration not stated) | inconclusive [inhibitor, partial curve] | –
CCCCn1c(O)c(C(CC)=Nc2ccc3c(c2)CCC3)c(=O)[nH]c1=O | – | inactive: -6.39%
CCSc1cc(N2CCOCC2)nc(-c2ccccc2)n1 | inconclusive [inhibitor, single point] | –
O=C1CC(c2cccs2)c2cc3c(cc2N1)OCO3 (configuration not stated) | inconclusive [inhibitor, partial curve, poor fit] | –
CC(C)(C)c1ccc(Cn2c(=O)cnc3ccccc32)cc1 | inconclusive [inhibitor, single point] | –
O=C(NCCNc1ccc([N+](=O)[O-])cc1Cl)c1ccccc1F | inconclusive [inhibitor, single point] | –
Cc1ccc(COC(=O)CCCN=C2NS(=O)(=O)c3ccccc32)cc1 | inconclusive [inhibitor, single point] | –
CCOC(=O)N1CCN(C(=O)CSCC(=O)Nc2nc(-c3ccc4c(c3)OCO4)cs2)CC1 | inconclusive [inhibitor, full curve] | –
COc1cccc(OC)c1C(=O)NCCOc1cc(C)cc(C)c1 | – | inactive: -13.8%
CCOc1ccccc1NC(=O)CN(c1ccc(C)cc1)S(=O)(=O)c1c(C)noc1C | active: 4.15 µM | –
CC(C)CCn1c(SCc2ccc(Cl)cc2)nc2c1c(=O)[nH]c(=O)n2C | inconclusive [inhibitor, full curve] | –
CCCCc1ccc(-n2nnnc2SCC(=O)Nc2cc(OC)c([N+](=O)[O-])cc2C)cc1 | inconclusive [inhibitor, single point] | –
COc1cc(C(=O)NC2CCCc3ccccc32)cc(OC)c1C (configuration not stated) | inconclusive [inhibitor, partial curve] | –
COc1ccc2cc(CCNC(=O)C3CCCC3)c(=O)[nH]c2c1 | inconclusive [inhibitor, partial curve, poor fit] | –
Fc1ccc(NCc2ccccc2F)cc1Cl | – | inactive: 37.2%

Compound | Potency | activity change, negative = inhibition
COC(=O)C1=C(C)NC(C)=C(C(=O)OCC(C)C)C1c1ccccc1[N+](=O)[O-] (configuration not stated) | active: 7.57 µM | –
CN(C)S(=O)(=O)n1cnc(-c2ccccc2)c1-c1ccccc1 | inconclusive [inhibitor, single point] | –
O=C(CCSc1nc2ccccc2s1)N/N=C/c1c(O)ccc2ccccc12 | inconclusive [inhibitor, single point] | –
Cc1sc2nc(CSCC(=O)N3CC(C)OC(C)C3)[nH]c(=O)c2c1C (configuration not stated) | inconclusive [inhibitor, single point] | –
CC1(NC(=O)Cc2c(Cl)cccc2Cl)CCS(=O)(=O)C1 (configuration not stated) | inconclusive [inhibitor, single point] | –
CC1CC(C)CN(C(=O)CCNS(=O)(=O)c2cccs2)C1 (configuration not stated) | – | inactive: 25.7%
CON(C)S(=O)(=O)c1ccc2c(c1)NC(=O)C1CCCN21 (configuration not stated) | inconclusive [inhibitor, single point] | –
COc1ccc(CNCC(O)(c2ccc(F)cc2)c2ccc(F)cc2)cc1 | active: 11.7 µM | –
COc1ccc(/C=N/OCC(=O)Nc2nc3ccccc3s2)cc1OC | – | inactive: 23.5%
O=c1c(Cc2ccccc2)c(O)ccn1C1CCCCCCC1 | inconclusive [inhibitor, partial curve] | –
COc1ccc(CNC(=O)c2ccc(NC(=O)C3CCCO3)cc2)cc1 (configuration not stated) | – | inactive: 22.7%
COc1cccc(NC(=O)c2ccccc2N2C(=O)C3C4C=CC(C5CC45)C3C2=O)c1 (configuration not stated) | – | inactive: -8.74%
COC(=O)c1sccc1NC(=S)N1CCCCC1 | inconclusive [inhibitor, single point] | –
COc1ccc(NC(=O)C2CC(c3ccc(OC)c(OC)c3)=NO2)cc1OC (configuration not stated) | – | inactive: -4.23%
Cc1cc(C)nc(N2CCC(C(=O)NC3CC3)CC2)n1 | inconclusive [inhibitor, single point] | –
COc1ccccc1CNS(=O)(=O)c1ccc2c(c1)NC(=O)CO2 | – | inactive: 23.4%
COc1cccc(CN2CCN(Cc3nc(-c4cccc(F)c4F)oc3C)CC2=O)c1 | active: 13.1 µM | –
CCCCn1c(O)c(C=NCCCN(C)C)c(=O)[nH]c1=O | inconclusive [inhibitor, full curve, poor fit] | –
O=C(C1CCCCN1S(=O)(=O)c1ccccc1)N1CCN(C(c2ccccc2)c2ccccc2)CC1 (configuration not stated) | active: 1.85 µM | –
O=C(CSc1nc2ccc(Cl)cc2[nH]1)NC1CCCc2ccccc21 (configuration not stated) | – | inactive: 16.8%
O=S(=O)(NC1CCc2ccccc21)c1ccc(S(=O)(=O)N2CCCC2)cc1 (configuration not stated) | inconclusive [inhibitor, single point] | –
CCN1CCN(c2ccc(S(=O)(=O)N3CCCCC3)cc2NC(=O)Cc2ccccc2F)CC1 | inconclusive [inhibitor, single point] | –
COc1ccc(NC(=O)c2c(NC(=O)CNCc3ccco3)sc3c2CCC3)c(OC)c1 | inconclusive [inhibitor, partial curve] | –
CC1(c2ccc(OC(F)F)cc2)NC(=O)N(CC(=O)Nc2ccccc2)C1=O (configuration not stated) | – | inactive: 28.3%
